1 compound from US20170198196A1, “METHODS FOR CONTROLLING SOURING IN ENGINEERED SYSTEMS” (The Regents of the University of California, priority 2014, published 2017) can be followed below.

Assay [1] concerns Desulfovibrio alaskensis G20. The note with it: cultures of Desulfovibrio alaskensis G20.
For assay [2], the system named is Desulfovibrio alaskensis G20. Nature of the assay: microbe, parasite or virus in culture. Particulars: Oleidesulfovibrio alaskensis, G20, read-out: IC50 against growth of Desulfovibrio alaskensis G20.

By IC50 is commonly meant the midpoint of a concentration-inhibition curve.

`[O-][I+3]([O-])([O-])O` [periodate]: in assay [1], the “IC50 values (in terms of growth inhibition), in words” value was “sub-millimolar”. Besides, the concentration for half-maximal inhibition (IC50) in assay [2] is under 1000 µM.
